Experimental data: the supplement of paper PMC10338343
± gives the standard deviation. This is a selection; strong and weak results do not stand in their true shares.

Test system: MIWI (PIWIL1) piRISC loaded with L1MC piRNA (30 nt)
Test: pre-steady-state target cleavage rate (min^-1); MIWI and MILI are mouse PIWI proteins and EfPiwi is from a freshwater sponge; tags in brackets are library labels; higher = faster piRNA-guided slicing of the target
Settings: guide: L1MC piRNA 5'p-UAACUAAAUACUAUGCAAGCUGUAGGUCCU
In short: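 Cleave-'n-Seq: 1 nM active affinity-purified piRISC with one synthetic guide and 0.1 nM transcribed, DNA-blocked target RNA library were mixed, with or without 500 nM GTSF1 partner protein, in HEPES–potassium acetate buffer at 33 °C for 0–8 or 0–960 min. Uncleaved targets were sequenced and normalised to depth and to weakly complementary targets, three trials were pooled, and k3 was capped at 0.0001 min^-1. The pre-steady-state cleavage rate was fitted […].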

[1] = auxiliary factor: 500 nM mouse GTSF1
[2] = auxiliary factor: none (no GTSF1)

Sequence	pre-steady-state target cleavage rate [1]	pre-steady-state target cleavage rate [2]
UCCUGGAACAGCUUGGAUACUAUUUAGUUA	0.28 ± 0.033	0.0144 ± 0.004
AGGUCCUACAGCUUGCAUUGUAUUUAGUUA	0.833 ± 0.057	0.0393 ± 0.0083
UCGACCUACAGCUUGGAUAGUAUUUAGAUA	0.444 ± 0.05	0.0181 ± 0.0047
UCCUGCUACUGCUUGCAUAGUAUUUAGUUA	0.559 ± 0.047	0.04 ± 0.006
UCCACCUACAGCUUGCAUUGUAUUUAGUUA	0.827 ± 0.033	0.0247 ± 0.0055
UCCUGGAUCAGCUUGCAUAGUACUUUAGUUA	0.331 ± 0.031	0.00773 ± 0.0033
UGGACCUACAGCUUGGUUAGUAUUUAGUUA	1.28 ± 0.054	0.0112 ± 0.0026
UCCUGGAUGAGCUUGCAUAGUAUAUAGUUA	0.398 ± 0.046	0.0202 ± 0.006
UCCUCCUAGAGCUAGCAUAGUAUUUAGUUA	0.634 ± 0.035	0.0109 ± 0.0023
UCCUGCUACAGCUUCGAUAGUAUUUAGUUA	0.575 ± 0.047	0.00314 ± 0.0022
AGGACCUACAGCUUGCAUAGUAUUUAGCUUA	0.476 ± 0.078	0.0351 ± 0.0088
AGGACCUACAGCUAGCAUUGUAUUUAGUUA	0.678 ± 0.037	0.0101 ± 0.0028
UCCUGGAUGUGCUUGCAUAGUAAUUACUUA	0.0268 ± 0.008	0.00786 ± 0.0028
AGGACCUACAGCUUGCAUAGUAUUAACAAA	0.409 ± 0.061	0.00389 ± 0.0032
UCGACCUACAGCUUGCAUAGUUUUUAGUAA	0.318 ± 0.025	0.0281 ± 0.0079
UGGACCUACAGCAUGCAUAGUUUUUAGUUA	0.43 ± 0.026	0.0174 ± 0.005
UCGACCUACAGCUUCCUUAGUAUUUAGUUA	0.418 ± 0.032	0.0023 ± 0.0015
UCCUGGUACAGCUUGCAUAGUAUAAAGUAA	0.194 ± 0.037	0.00352 ± 0.0035
UCCUCGUACAGCUUGCAUAGUAUUAAGUUA	0.648 ± 0.041	0.0186 ± 0.0033
AGGACCUACAGCUUGCAUAGUAUUUAGUA	0.795 ± 0.042	0.0502 ± 0.014
UCCUGGUAGAGCUUGGAUAGUAUUUAGUUA	0.481 ± 0.042	0.028 ± 0.0069
AGGACCUACAGCUUGGAUAGUAUUUAGUAA	1.02 ± 0.063	0.0552 ± 0.012
UGGACCUACACCUUGCAUACUAUUUAGUUA	0.244 ± 0.021	0.0225 ± 0.006
UCCUGGAUGUGCCUGCAUAGUAUUUAGUUA	0.221 ± 0.024	0.0242 ± 0.0056
UCGACCUACAGCUUGCUUAGUAUUAAGUUA	0.474 ± 0.036	0.0101 ± 0.0029
UCGACCUACAGCUUGCAUAGUAUUUUGAAA	0.399 ± 0.03	0.0061 ± 0.0028
UCCUCCUACAGCUUGCAUAGUAAAUAGUUA	0.54 ± 0.037	0.00555 ± 0.0024
UGGACCUAAGCUUGCAUAGUAUUUAGUUA	1.27 ± 0.083	0.0446 ± 0.012

Sequence	pre-steady-state target cleavage rate [1]	pre-steady-state target cleavage rate [2]
AGGACCUACAGCUUCCUUAGUAUUUAGUUA	0.63 ± 0.049	0.00273 ± 0.0022
AGGACCAACACCUUGCAUAGUAUUUAGUUA	1.17 ± 0.036	0.0708 ± 0.011
UGGACCUAUCAGCUUGCAUAGUAUUUAGUUA	1.48 ± 0.086	0.074 ± 0.016
UCCACCUACAGCUUGCAUAGUAAUUAGUUA	0.745 ± 0.051	0.0222 ± 0.0057
UCCUGGUACAGCUUGCAUAGUAUUUUGUAA	0.107 ± 0.022	0.0105 ± 0.0027
UCCUGGAACAGCUUGCAUACUAUUUAGAAA	0.096 ± 0.02	0.00562 ± 0.0024
AGGACCAACAGCUUGCAUAGUAUUUAGAUA	0.509 ± 0.045	0.0557 ± 0.011
UCCUCCUAGAGCUUGCAUAGUAUUUAGUAA	0.602 ± 0.049	0.0152 ± 0.0033
UCCACCUACAGCUUGCAUAGUAUUAACUUA	0.22 ± 0.035	0.00734 ± 0.0026
UCCUGCUUGUGCUUGCAUAGUAUUUAGAAA	0.0867 ± 0.017	0.00326 ± 0.0021
UCCUGCUACAGCUUGCAUACUAUAUAGUUA	0.199 ± 0.02	0.0106 ± 0.0021
UCCACCUACGCUUGCAUAGUAUUUAGUUA	0.998 ± 0.04	0.0451 ± 0.0077
UGGACGAUCAGCUUGCAUAGUAUUUUCAAA	0.337 ± 0.038	0.00684 ± 0.0023
UGGACCUACACCUUGCAUAGUAUUUUGUUA	0.557 ± 0.068	0.0292 ± 0.0053
UCCUCCUACAGGAAGCAUAGUAUUUAGUUA	1.04 ± 0.065	0.00536 ± 0.0019
UCGACCUACAGCUGGCAUAGUAUUUAGUUA	1.31 ± 0.049	0.0512 ± 0.011
UGGACCUACAGCGUUGCAUAGUAUUUAGUUA	1.33 ± 0.11	0.0647 ± 0.013
UCCUGGAAGUCCUUGCAUAGUAUUUAGUAA	0.0524 ± 0.01	0.00404 ± 0.0018
UCGACCUACACCUUGCAUAGAAUUUAGUUA	0.395 ± 0.07	0.0128 ± 0.0024
UCCUCCAACAGGUUGCAUAGUAUUUAGUUA	1.15 ± 0.048	0.0305 ± 0.0065
UCCUGGUACAGCAAGCAUAGUAUUUAGUAA	0.316 ± 0.039	0.0033 ± 0.0024
UCCUGCAACAGCUUGCAUAGUAUUUACAAA	0.393 ± 0.071	0.00387 ± 0.0028
AGGACCUUGAGCUUGCAUAGUAUUUAGUAA	0.941 ± 0.062	0.0569 ± 0.015
UCCUGGAUGUGCUCUGCAUAGUAUUUAGUUA	0.21 ± 0.025	0.00818 ± 0.0038
UCGACCAUGAGCUUGCAUAGUAUUUACAAA	0.223 ± 0.037	0.00404 ± 0.0019
UCCUGGAACAGCUUGCAUAGUAGUUAGUUA	0.329 ± 0.027	0.0256 ± 0.005
ACCACCUACAGCUUGCAUAGUAUUUAGAAA	0.462 ± 0.065	0.00839 ± 0.004
